Measured values taken from the supplement of paper PMC8728848.
The list shows a part of the results.

Tests used:
Assay in all cases: glycan array binding signal (z-score within array); higher = stronger binding
Settings in all cases: glycan notation: IUPAC condensed, linker removed
[1] = target: Gal3S(b1-3)[Fuc(a1-4)]GlcNAc
Method in brief: (§1)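 The Consortium for Functional Glycomics database supplied 3228 glycan arrays, of which those lacking an available protein sequence were dropped. The binding signal, a within-array Z-score, was averaged across arrays of the same protein sequence and across linkers. Negative scores can be read as non-binding.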

[2] = target: Gal3S(b1-4)Glc
Method in brief: as §1

[3] = target: Gal3S(b1-4)Glc6S
Method in brief: as §1

[4] = target: Gal3S(b1-4)GlcNAc
Method in brief: as §1

[5] = target: Gal3S(b1-4)GlcNAc6S
Method in brief: as §1

[6] = target: Gal3S(b1-4)[Fuc(a1-3)]Glc
Method in brief: as §1

[7] = target: Gal3S(b1-4)[Fuc(a1-3)]Glc6S
Method in brief: as §1

[8] = target: Gal3S4S(b1-4)GlcNAc
Method in brief: as §1

[9] = target: Gal3S6S(b1-4)GlcNAc
Method in brief: as §1

[10] = target: Gal3S6S(b1-4)GlcNAc6S
Method in brief: as §1

[11] = target: Gal4S(b1-4)GlcNAc
Method in brief: as §1

[12] = target: Gal4S6S(b1-4)GlcNAc
Method in brief: as §1

[13] = target: Gal6S(b1-3)GlcNAc
Method in brief: as §1

[14] = target: Gal6S(b1-3)GlcNAc6S
Method in brief: as §1

[15] = target: Gal6S(b1-4)Glc
Method in brief: as §1

[16] = target: Gal6S(b1-4)Glc6S
Method in brief: as §1

[17] = target: Gal6S(b1-4)GlcNAc
Method in brief: as §1

[18] = target: Gal6S(b1-4)GlcNAc6S
Method in brief: as §1

[19] = target: GalNAc(a1-3)Gal
Method in brief: as §1

[20] = target: GalNAc(a1-3)GalNAc
Method in brief: as §1

[21] = target: GalNAc(a1-3)GalNAc(b1-3)Gal(a1-4)Gal(b1-4)Glc
Method in brief: as §1

[22] = target: GalNAc(a1-3)GalNAc(b1-3)Gal(a1-4)Gal(b1-4)GlcNAc
Method in brief: as §1

[23] = target: GalNAc(b1-3)Gal
Method in brief: as §1

[24] = target: GalNAc(b1-3)Gal(a1-4)Gal(b1-4)GlcNAc
Method in brief: as §1

[25] = target: GalNAc(b1-3)Gal(a1-4)Gal(b1-4)GlcNAc(b1-3)Gal(b1-4)Glc
Method in brief: as §1

[26] = target: GalNAc(b1-3)Gal(a1-6)Gal(b1-4)Glc
Method in brief: as §1

[27] = target: GalNAc(b1-3)GalNAc
Method in brief: as §1

[28] = target: GalNAc(b1-4)Gal(b1-4)Glc
Method in brief: as §1

[29] = target: GalNAc(b1-4)GlcNAc
Method in brief: as §1

[30] = target: GalNAc(b1-4)GlcNAc(b1-2)Man(a1-3)[GalNAc(b1-4)GlcNAc(b1-2)Man(a1-6)]Man(b1-4)GlcNAc(b1-4)GlcNAc
Method in brief: as §1

[31] = target: GalNAc(b1-6)GalNAc
Method in brief: as §1

[32] = target: Glc(a1-4)Glc
Method in brief: as §1

[33] = target: Glc(a1-4)Glc(a1-4)Glc(a1-4)Glc
Method in brief: as §1

[34] = target: Glc(a1-6)Glc(a1-6)Glc
Method in brief: as §1

[35] = target: Glc(a1-6)Glc(a1-6)Glc(a1-6)Glc
Method in brief: as §1

[36] = target: Glc(b1-4)Glc
Method in brief: as §1

[37] = target: Glc(b1-6)Glc
Method in brief: as §1

[38] = target: GlcA(b1-3)Gal
Method in brief: as §1

[39] = target: GlcA(b1-3)GlcNAc
Method in brief: as §1

[40] = target: GlcA(b1-6)Gal
Method in brief: as §1

[41] = target: GlcNAc(a1-3)Gal(b1-4)GlcNAc
Method in brief: as §1

[42] = target: GlcNAc(a1-4)Gal(b1-3)GlcNAc
Method in brief: as §1

[43] = target: GlcNAc(a1-4)Gal(b1-4)GalNAc
Method in brief: as §1

[44] = target: GlcNAc(a1-4)Gal(b1-4)GlcNAc
Method in brief: as §1

[45] = target: GlcNAc(a1-4)Gal(b1-4)GlcNAc(b1-3)Gal(b1-4)Glc
Method in brief: as §1

B1: SefD (Salmonella enterica), Q9L6K6 (protein)
chain: GAYIIRGQNNSAHKLRIRIGGEDWQPDNSGIGMVSHSDFTNEFNIYYFGNGDIPVDTYLISIYATEIEL
- glycan array binding signal (z-score) [1]: -0.176
- glycan array binding signal (z-score) [2]: -0.466
- glycan array binding signal (z-score) [3]: -0.18
- glycan array binding signal (z-score) [4]: 1.12
- glycan array binding signal (z-score) [5]: 0.393
- glycan array binding signal (z-score) [6]: -0.48
- glycan array binding signal (z-score) [7]: -0.296
- glycan array binding signal (z-score) [8]: -0.413
- glycan array binding signal (z-score) [9]: -0.484
- glycan array binding signal (z-score) [10]: 0.009
- glycan array binding signal (z-score) [11]: -0.02
- glycan array binding signal (z-score) [12]: -0.213
- glycan array binding signal (z-score) [13]: -0.091
- glycan array binding signal (z-score) [14]: -0.408
- glycan array binding signal (z-score) [15]: 0.288
- glycan array binding signal (z-score) [16]: -0.435
- glycan array binding signal (z-score) [17]: -0.524
- glycan array binding signal (z-score) [18]: -0.182
- glycan array binding signal (z-score) [19]: -0.209
- glycan array binding signal (z-score) [20]: -0.036
- glycan array binding signal (z-score) [21]: -0.316
- glycan array binding signal (z-score) [22]: -0.545
- glycan array binding signal (z-score) [23]: -0.303
- glycan array binding signal (z-score) [24]: 0.251
- glycan array binding signal (z-score) [25]: 0.448
- glycan array binding signal (z-score) [26]: -0.631
- glycan array binding signal (z-score) [27]: -0.05
- glycan array binding signal (z-score) [28]: 0.2
- glycan array binding signal (z-score) [29]: 0.499
- glycan array binding signal (z-score) [30]: -0.267
- glycan array binding signal (z-score) [31]: -0.546
- glycan array binding signal (z-score) [32]: -0.273
- glycan array binding signal (z-score) [33]: -0.307
- glycan array binding signal (z-score) [34]: 0.204
- glycan array binding signal (z-score) [35]: -0.319
- glycan array binding signal (z-score) [36]: -0.125
- glycan array binding signal (z-score) [37]: -0.464
- glycan array binding signal (z-score) [38]: -0.456
- glycan array binding signal (z-score) [39]: -0.236
- glycan array binding signal (z-score) [40]: -0.424
- glycan array binding signal (z-score) [41]: -0.375
- glycan array binding signal (z-score) [42]: -0.302
- glycan array binding signal (z-score) [43]: -0.351
- glycan array binding signal (z-score) [44]: -0.304
- glycan array binding signal (z-score) [45]: -0.529
